# Source: the supplement of paper PMC9446081
# Out of some 39,000 compounds screened, about 220 (0.56%) showed activity. This is one part of the list.
# System: Escherichia coli K-12 BW25113
# Assay: relative growth (OD600 normalised to plate interquartile mean) (fraction); higher = less growth inhibition, active = 0.2 or less
# Details: 50 µM; LB; incubation time: overnight (16-24 h)
# 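Also: static incubation at 37 °C against the wild-type strain, values averaged over two biological replicates.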
row,Structure (SMILES),relative growth
1,C[C@@H]1CN([C@@H](C)CO)S(=O)(=O)c2ccc(C#CC3CCCC3)cc2O[C@@H]1CN(C)C(=O)Cc1ccncc1,inactive: 0.911
2,CC(C)CC#Cc1ccc2c(c1)O[C@@H](CN(C)C(=O)c1ccccn1)[C@H](C)CN([C@@H](C)CO)S2(=O)=O,inactive: 1.01
3,C=C1CC[C@@H]2C(C)(C)CCC[C@@]2(C)[C@@H]1CC/C(C)=C/C(=O)OC,inactive: 1.01
4,C[C@H]1CN([C@@H](C)CO)C(=O)c2cc(NC(=O)CCC(F)(F)F)ccc2O[C@@H]1CN(C)S(C)(=O)=O,inactive: 1.04
5,Cc1noc(C)c1NC(=O)N(C)C[C@@H]1Oc2ccc(NC(=O)Nc3ccc(C(F)(F)F)cc3)cc2C(=O)N([C@H](C)CO)C[C@@H]1C,inactive: 1.01
6,C[C@@H]1CN([C@H](C)CO)C(=O)c2cc(NC(=O)NC3CCCCC3)ccc2O[C@@H](C)CCCCO[C@H]1CN(C)C(=O)Nc1ccc(F)cc1,inactive: 1.01
7,Cc1noc(C)c1NC(=O)N(C)C[C@H]1Oc2ccc(NS(=O)(=O)c3cn(C)cn3)cc2C(=O)N([C@H](C)CO)C[C@H]1C,inactive: 0.989
8,C[C@@H]1CCCCO[C@@H](CN(C)CC2CCCCC2)[C@@H](C)CN([C@H](C)CO)C(=O)c2cc(NS(=O)(=O)c3ccc(Cl)cc3)ccc2O1,inactive: 0.971
9,C[C@H]1CN([C@@H](C)CO)C(=O)c2cc(Br)cnc2O[C@@H]1CN(C)S(=O)(=O)c1cn(C)cn1,inactive: 0.842
10,C[C@@H]1CN([C@H](C)CO)C(=O)c2cc(NC(=O)Nc3ccc4c(c3)OCO4)ccc2O[C@@H](C)CCCCO[C@@H]1CN(C)C(=O)C1CCCCC1,inactive: 1.02
11,CCC(=O)N1C[C@]2(CN(C2)C(=O)CN2CCOCC2)c2c([nH]c3cc(ccc23)OC)[C@H]1CO,inactive: 1.01
12,CCC(=C(CC)c1ccc(O)cc1)c1ccc(O)cc1,inactive: 0.666
13,C[C@@H]1CCCCO[C@H](CN(C)C(=O)Cc2ccccc2)[C@@H](C)CN([C@H](C)CO)C(=O)c2cc(NC(=O)c3ccccc3)ccc2O1,inactive: 0.977
14,C[C@H](CO)N1C[C@H](C)[C@@H](CN(C)S(=O)(=O)c2cccs2)Oc2c(NC(=O)c3cnccn3)cccc2C1=O,inactive: 0.991
15,CC(C)NC(=O)N(C)C[C@H]1Oc2ccc(NC(=O)Cn3cnnn3)cc2CC(=O)N([C@H](C)CO)C[C@H]1C,inactive: 0.99
16,C[C@H]1C[C@@](N)(C(=O)O)C1,inactive: 0.981
17,C[C@@H]1CCCCO[C@H](CN(C)Cc2ccccc2)[C@H](C)CN([C@@H](C)CO)C(=O)c2cc(NC(=O)Nc3ccc(C(F)(F)F)cc3)ccc2O1,inactive: 0.959
18,O=C(C[C@@H]1CC=CC[C@H](NC(=O)OCC2c3ccccc3-c3ccccc32)C(=O)OC[C@H](Cc2ccccc2)NC1=O)N[C@@H](CO)Cc1ccccc1,inactive: 0.988

row,Structure (SMILES),relative growth
1,C[C@@H]1CN([C@H](C)CO)S(=O)(=O)c2ccc(C#CCN(C)C)cc2O[C@H]1CN(C)Cc1ccc(F)cc1,inactive: 0.95
2,C[C@@H]1CN([C@H](C)CO)C(=O)Cc2cc(NC(=O)CCN3CCOCC3)ccc2O[C@@H]1CN(C)S(=O)(=O)c1cn(C)cn1,inactive: 1.01
3,C[C@@H]1CN(CCO)C(=O)c2cc(NC(=O)Nc3ccccc3)ccc2O[C@@H](C)CCCCO[C@H]1CN(C)S(=O)(=O)c1ccc(F)cc1,inactive: 1.02
4,Cc1noc(C)c1NC(=O)Nc1ccc2c(c1)C(=O)N([C@H](C)CO)C[C@@H](C)[C@@H](CN(C)C(=O)NC1CCCCC1)OCCCC[C@@H](C)O2,inactive: 0.989
5,C[C@@H]1CCCCO[C@@H](CN(C)CC2CCCCC2)[C@H](C)CN([C@H](C)CO)C(=O)c2cc(NC(=O)CCCCCC(=O)Nc3ccccc3N)ccc2O1,inactive: 0.993
6,CC[C@H](C)[C@H](N)C1=N[C@H](C(=O)N[C@@H](CC(C)C)C(=O)N[C@H](CCC(=O)O)C(=O)N[C@H](C(=O)N[C@H]2CCCCNC(=O)[C@H](CC(N)=O)NC(=O)[C@@H](CC(=O)O)NC(=O)[C@H](Cc3cnc[nH]3)NC(=O)[C@@H](Cc3ccccc3)NC(=O)[C@H]([C@@H](C)CC)NC(=O)[C@@H](CCCN)NC2=O)[C@@H](C)CC)CS1,inactive: 0.909
7,NCC[S@@](=O)c1c(-c2ccc(F)cc2)[nH]c2ccccc12,inactive: 1.02
8,O=C(C[C@@H]1CC[C@H]2NC[C@@H](O)COC[C@@H]2O1)NCCN1CCCCC1,inactive: 1.01
9,COc1ccc(NC(=O)Nc2ccc3c(c2)[C@H]2C[C@H](CC(=O)N4CCN(C)CC4)O[C@@H](CO)[C@H]2O3)cc1,inactive: 1.01
10,CC(N)C(O)c1cccc(O)c1.O=C(O)C(O)C(O)C(=O)O (stereo unspecified),inactive: 0.957
11,COc1ccc(CN(C)C[C@H]2OCCCC[C@H](C)Oc3ccc(NS(=O)(=O)c4ccc(Cl)cc4)cc3C(=O)N([C@H](C)CO)C[C@@H]2C)cc1,inactive: 0.998
12,C[C@H](CO)N1C[C@H](C)[C@H](CN(C)C(=O)Nc2cccc(C(F)(F)F)c2)OCc2ccccc2-c2c(n(C)c3ccccc23)C1=O,inactive: 1.03
13,C[C@@H]1CN([C@H](C)CO)C(=O)c2cc(NC(=O)c3ccccc3)ccc2O[C@@H](C)CCCCO[C@H]1CN(C)S(=O)(=O)c1cccs1,inactive: 1.04
14,Cn1cc(N2C[C@]3(CNCCOC3)OCC2=O)cn1,inactive: 0.996
15,C[C@H]1CN([C@@H](C)CO)S(=O)(=O)c2ccc(-c3ccc(C(=O)N(C)C)cc3)cc2O[C@@H]1CN(C)C(=O)Cc1ccccn1,inactive: 0.968
16,O=C(NCc1ccc(F)cc1)[C@H]1[C@H](CO)[C@H]2Cn3c(cccc3=O)[C@@H]1N2C(=O)c1cnccn1,inactive: 0.985
17,C[C@@H]1CCCCO[C@H](CN(C)Cc2ccc(C(=O)O)cc2)[C@@H](C)CN([C@H](C)CO)C(=O)c2cc(NC(=O)C3CCCCC3)ccc2O1,inactive: 1.01
18,C[C@@H]1CN([C@@H](C)CO)C(=O)Cc2cc(NC(=O)c3ccncc3)ccc2O[C@H]1CN(C)Cc1ccc(C(=O)O)cc1,inactive: 1
